# Source: PubChem BioAssay AID504466 (National Center for Advancing Translational Sciences (NCATS), 2011)
# About 4,200 (1.3%) of roughly 330,000 compounds were called active. The inconclusive results got no clear call from the source; some entries with a clear call stand among them for comparison. Calls follow the shape of the dose curve; as a rule, active = well fitted activation curve with a large enough effect; inconclusive = small, poorly fitted or top-dose-only effect; inactive = no such curve, though single readings can be large or run the other way. Potencies of inconclusive entries are doubtful fits and often do not repeat.
# Assay: qHTS screen for small molecules that induce genotoxicity in human embryonic kidney (HEK293T) cells expressing luciferase-tagged ELG1; also: nearly all actives have a fitted effect of over 60% in size
# Details: HEK293T ELG1-luciferase reporter, luminescence, 16 h; series mostly up to 46 µM
# Outline: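 After overnight (16 hr) compound treatment at 37 °C, ELG1-luciferase HEK293T cells were lysed with ONE-Glo; luminescence quantified 30 min later at room temperature.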
# Potency is read from the fitted curve at half-maximal effect; tags tell the direction and shape of the fitted curve.
row,SMILES,Potency
1,O=C(CSCc1ccco1)c1cccs1,active: 11.6 µM
2,COc1ccc(-c2nc(-c3ccc(Br)o3)no2)cc1OC,active: 20.6 µM
3,COc1ccc(NC(=O)CSc2nc(C)cs2)cc1,"inconclusive: 25.9 µM [activator, partial curve, poor fit]"
4,CC1(C)Cc2nc3sc(C(=O)NCCCO)c(N)c3cc2CS1,"inconclusive: 18.3 µM [activator, single point]"
5,O=C(CNc1cccc(C(F)(F)F)c1)N/N=C/c1cn(-c2ccccc2)nc1-c1ccccc1,"inconclusive: 29.1 µM [activator, partial curve, poor fit]"
6,Cc1nc(Cl)cc(N/N=C/c2ccc(O)cc2)n1,"inconclusive: 23.1 µM [activator, single point]"
7,Cc1ccccc1-c1nnc(-c2ccccc2)o1,active: 9.2 µM
8,O=C(CSc1nc2ccccc2s1)Nc1ccc(N2CCOCC2)c(Cl)c1,inactive
9,CC(=O)c1c(C)[nH]c(C(=O)NCCc2ccccc2)c1C,"inconclusive: 4.61 µM [activator, full curve]"
10,O=C(CCS(=O)(=O)c1ccc(Cl)cc1)Nc1ccc(F)cc1,inactive
11,O=C(NC(=S)Nc1ccc(N2CCCCC2)cc1)c1ccco1,"inconclusive: 1.46 µM [activator, full curve]"
12,C=CCN(C(=O)C1CSC2(C)CCC(=O)N12)c1nc(-c2ccccc2)cs1 (configuration not stated),active: 18.3 µM
13,CSc1nnc(-c2ccccc2N=Cc2c(C)[nH]n(-c3ccc4ccccc4c3)c2=O)c(=O)[nH]1,inactive
14,COCCn1c(C)cc(C(=O)CN2C(=O)NC3(CCCCCC3)C2=O)c1C,"inconclusive: 8.2 µM [activator, partial curve]"
15,Cc1ccc(NC(=O)NC2CCCCCCC2)cc1C,"inconclusive: 7.3 µM [activator, partial curve, poor fit]"
16,O=C(NC1CCCC1)c1cc(-c2ccc(Cl)cc2)on1,active: 4.61 µM
17,C[n+]1c(/C=C/c2ccc3c(c2)OCO3)ccc2ccccc21,"inconclusive: 1.46 µM [activator, partial curve, poor fit]"
18,COc1ccc(CNC(=O)c2ccc(C(C)(C)C)cc2)cc1,"inconclusive: 9.2 µM [activator, partial curve, poor fit]"
19,COc1cccc(CN2CCCC(C(=O)Nc3ccc(-c4cscn4)cc3)C2)c1 (configuration not stated),inactive
20,O=C(N/N=C/c1cn(-c2cccs2)nc1-c1ccccc1)c1ccccc1Br,inactive
21,Cc1cc(=O)[nH]c(SC/C=C/c2ccccc2)n1,"inconclusive: 25.9 µM [activator, partial curve, poor fit]"
22,c1ccc(-n2cnc3cc(NCc4ccccn4)ccc32)cc1,"inconclusive: 13 µM [activator, partial curve]"
23,C(=N\Nc1ncnc2ccccc12)/c1ccccc1,"inconclusive: 2.91 µM [activator, single point]"
24,O=C(Nc1ccncc1)c1ccc(F)cc1,inactive

row,SMILES,Potency
1,COc1nc(C)nc2c1sc1nc3c(cc12)COC(C)(C)C3,active: 8.2 µM
2,COc1ccc(-c2cc(=O)oc3c(C)c(OC(=O)c4cccs4)ccc23)cc1,inactive
3,COc1ccc(Br)cc1-c1noc(-c2ccccc2)n1,"inconclusive: 35.5 µM [activator, single point]"
4,COC(=O)CN(C)C(=O)c1ccc2nc(Cc3cccc(Cl)c3)oc2c1,"inconclusive: 20.6 µM [activator, partial curve]"
5,O=C(N/C=C/c1ccco1)OCc1ccccc1,"inconclusive: 16.4 µM [activator, partial curve, poor fit]"
6,c1ccc(-c2ccc(-n3ccnc3)cc2)cc1,"inconclusive: 8.2 µM [activator, single point]"
7,COc1ccc(-c2cc3cc(F)ccc3cn2)cc1,"inconclusive: 2.06 µM [activator, partial curve]"
8,CC(=O)Oc1ccc2cc(-c3ccccc3)c(=O)oc2c1,"inconclusive: 18.3 µM [activator, partial curve]"
9,CCCC(=O)Nc1ccc(N2CCCCC2)cc1,"inconclusive: 15.8 µM [activator, single point]"
10,CN(C)c1ccc(NC(=O)c2sc(SCC(=O)Nc3nccs3)nc2N)cc1,"inconclusive: 3.66 µM [activator, partial curve]"
11,CCOc1ccc2c(c1)S/C(=C\c1cccs1)C(=O)N2,"inconclusive: 16.4 µM [activator, partial curve, poor fit]"
12,CCCC(=O)Nc1ccc(NC(=O)c2cccc(OC)c2)nc1,inactive
13,COc1ccc(N)c2c1C(=O)c1ccccc1C2=O,"inconclusive: 20.6 µM [activator, partial curve, poor fit]"
14,O=C(N/N=C/c1ccc(O)cc1)c1ccc(NC(=O)c2ccccc2Br)cc1,inactive
15,COc1ccc(-c2cc(-c3cc(C)ccc3O)[nH]n2)cc1,"inconclusive: 4.11 µM [activator, full curve, poor fit]"
16,CC(=O)c1ccccc1NC(=O)c1ccc2c(c1)NC(=O)C(C)S2 (configuration not stated),"inconclusive: 5.8 µM [activator, full curve]"
17,COc1cc(C(=O)Nc2ccc(O)cc2)ccc1OC(C)=O,"inconclusive: 23.1 µM [activator, single point]"
18,COc1cc(/C=N/N=C2/NC(=O)C(Cc3ccccc3)S2)ccc1O (configuration not stated),inactive
19,O=C1CCCC(O)=C1N=Nc1cccc(C(=O)O)c1,"inconclusive: 14.6 µM [activator, partial curve, poor fit]"
20,Cc1cccc(NC(=O)c2ccc(C(=O)c3ccccc3)o2)c1,"inconclusive: 10.3 µM [activator, partial curve]"
21,Cc1ccnc2nc(C(=O)Nc3nc4ccccc4s3)nn12,"inconclusive: 3.26 µM [activator, full curve, poor fit]"
22,O=C(COc1cccc(Cl)c1)Nc1ccc2c(c1)CCC2,inactive
23,CN(C(=O)COc1cc(=O)n(C)c2ccccc12)c1ccc(Br)cc1,"inconclusive: 18.4 µM [activator, partial curve, poor fit]"
24,Cc1ccc(S(N)(=O)=O)cc1NC(=O)/C=C/c1cccs1,inactive

row,SMILES,Potency
1,O=C(N/C=C\c1ccccc1)NCc1ccc(Cl)cc1,inactive
2,COc1ccc(CNc2oc(-c3ccccc3)nc2C#N)cc1,"inconclusive: 20.6 µM [activator, single point]"
3,O=C(/C=C/c1ccc(O)cc1)c1ccc(O)cc1O,"inconclusive: 23.1 µM [activator, partial curve, poor fit]"
4,Nc1nnc(SCCOc2ccc(Br)cc2)s1,"inconclusive: 14.1 µM [activator, single point]"
5,O=C(NC1CCCCCCC1)c1cc(F)c(F)cc1Cl,"inconclusive: 16.4 µM [activator, partial curve]"
6,CCCCCCC(=O)N(O)C1CC(=O)N(c2ccc(F)cc2)C1=O (configuration not stated),"inconclusive: 29.1 µM [activator, partial curve, poor fit]"
7,COc1ccc(-c2ccccc2[C@H]2[C@@H]3C=CC[C@@H](C)[C@@H]3C(=O)N2Cc2ccccc2)cc1,inactive
8,Cc1ccccc1C(=O)O/N=C(\N)c1ccncc1,"inconclusive: 20.6 µM [activator, partial curve]"
9,Cc1cc(NC(=O)c2n[nH]c(=O)c3ccccc23)ccc1Br,"inconclusive: 13 µM [activator, partial curve, poor fit]"
10,O=C(c1cc(-c2ccccc2)on1)N1CCCc2ccccc21,"inconclusive: 18.3 µM [activator, partial curve, poor fit]"
11,COc1ccc(C2C(C#N)=C(N)N(N(C)C)C3=C2C(=O)CC(C)(C)C3)cc1 (configuration not stated),inactive
12,CSc1ccc(N=Nc2c(C)[nH]n(C)c2=O)cc1,"inconclusive: 29.1 µM [activator, partial curve, poor fit]"
13,Cc1c(-n2c(SCC(N)=O)nc3ccccc3c2=O)c(=O)n(-c2ccccc2)n1C,inactive
14,COC(=O)c1c(NC(=O)COC(=O)c2ccc(NC(=O)CC#N)cc2)sc2c1CCCCC2,"inconclusive: 25.9 µM [activator, single point]"
15,O=c1c2ccccc2nc2sc3ccccc3n12,"inconclusive: 20.6 µM [activator, partial curve]"
16,COc1ccc2nc(-c3cccc(N)c3)[nH]c2c1,"inconclusive: 2.59 µM [activator, full curve]"
17,O=C(CNC(=O)c1ccccc1F)NCCCN1CCCC1=O,"inconclusive: 14.6 µM [activator, partial curve]"
18,CCC(=O)Nc1cc(C(=O)OCC(=O)c2ccccc2Cl)ccc1C,"inconclusive: 10.3 µM [activator, partial curve, poor fit]"
19,COc1cc(OC)cc(C(=O)/C=C2\Sc3ccccc3N2C)c1,"inconclusive: 7.3 µM [activator, partial curve, poor fit]"
20,Oc1ccc(Br)cc1/C=N/N1CCCCC1,"inconclusive: 14.6 µM [activator, partial curve]"
21,Cc1ccc(S(=O)(=O)c2nnn3c2nc(N2CCN(c4ccccn4)CC2)c2ccccc23)cc1C,inactive
22,CCN(CC(=O)Nc1sc2c(c1C#N)CCC(C)C2)CC(=O)NC1CCS(=O)(=O)C1 (configuration not stated),inactive
23,O=C(CCCc1ccccc1)Nc1cccnc1,"inconclusive: 23.1 µM [activator, partial curve]"
24,CCOc1ccc(OCc2ccc(C(=O)O)o2)cc1,"inconclusive: 0.411 µM [activator, full curve]"
